Results: patent US20210246179A1

Key:
[1] = target: Human TauK18P301L fragment (human) (UniProt P10636); experiment: ELISA on plate-coated fibers; the column head prints 'fTauKL Binding (nM)'
[2] = target: Human TauK18P301L fragment (human) (UniProt P10636); experiment: ELISA
[3] = target: Aβ11-42-Pyro (human), P05067; experiment: ELISA
[4] = target: Aβ3-42-Pyro (human), P05067; experiment: ELISA
[5] = target: N-truncated Aβ11-42 (human), P05067; experiment: ELISA
[6] = target: Aβ1-42-E22Q (Dutch mutation) (human), P05067; experiment: ELISA

Chain of UniProt P10636 (P10636 561-689 P618L limits assumed): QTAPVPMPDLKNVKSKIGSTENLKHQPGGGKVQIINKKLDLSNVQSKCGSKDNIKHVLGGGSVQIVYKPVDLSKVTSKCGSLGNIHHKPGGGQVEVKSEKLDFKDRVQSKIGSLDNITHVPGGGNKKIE

B3: PB116 (open-stabilized GAIM-Ig fusion protein) (Fc fusion)
chain: MAETVESCLAKPHTENSFTNVWKEGDSRYANYEGCLWNAGGVVVCTGDETQCYGHWVPIGLAIPENEGGGSEGGGSEGGGSEGGGTKPPEYGDTPIPGYTYINPLDGTYPPGTEQNPANPNPSLEESQPLNTFMFQGNRFRARQGALTVYTGTFTQGTDPVKTYYQYTPVSSRAMYDAYWNGKFRDCAFHSGFNEDPFVCEYQGQSSDLPQPPANAGGESGGGSGGGSEGGGSEGGGSEGGGSEGGGSGGGSGSGARS[letters of human IgG1 Fc not shown]
EC50 [1]: 7 nM

B4: PB109 (open-stabilized GAIM-Ig fusion protein) (Fc fusion)
chain: B3 chain with T50H, H55T
EC50 [1]: 5.2 nM

B5: PB114 (open-stabilized GAIM-Ig fusion protein) (Fc fusion)
chain: B3 chain with G137N, R143V, Q144N, A146V
EC50 [1]: 8.7 nM

B7: PB120 (GAIM scaffold; GAIM-Ig fusion protein) (Fc fusion)
chain: MAETVESCLAKPHTENSFTNVWKDDKTLDRYANYEGCLWNAGGVVVCTGDETQCYGTWVPIGLAIPENEGGGSEGGGSEGGGSEGGGTKPPEYGDTPIPGYTYINPLDGTYPPGTEQNPANPNPSLEESQPLNTFMFQNNRFRNRQGALTVYTGTFTQGTDPVKTYYQYTPVSSRAMYDAYWNGKFRDCAFHSGFNEDPFVCEYQGQSSDLPQPPANAGGESGGGSGGGSEGGGSEGGGSEGGGSEGGGSGGGSGSGARS[letters of human IgG1 Fc not shown]
EC50 [2]: 59 nM | EC50 [3]: 40.6 nM | EC50 [6]: 21.9 nM | EC50 [4]: 24.1 nM | EC50 [5]: 24.3 nM

Further binders by falling EC50 [1], results first:

EC50 [1]: 24 nM
B2: PB122 (open-stabilized GAIM-Ig fusion protein) (Fc fusion)
chain: B3 chain with G137N, A142N, R143V, Q144N, A146V

EC50 [1]: 15 nM | EC50 [2]: 14 nM | EC50 [3]: 1.9 nM | EC50 [4]: 1.1 nM | EC50 [5]: 0.9 nM
B1: PB108 (open-stabilized GAIM-Ig fusion protein) (Fc fusion)
chain: B3 chain with A142N

EC50 [1]: 7.6 nM
B6: PB110 (open-stabilized GAIM-Ig fusion protein) (Fc fusion)
chain: B3 chain with T50H, H55T, G137N, R143V, Q144N, A146V

Changes are numbered by the printed parent chain. Each block holds one binder with its values, some of them ahead of it.
